Laboratory results from the supplement of paper PMC11417369.
± gives the standard deviation of the averaged measurements. The list shows a part of the results.

These sequences were tested on PfAP2-EXP AP2 domain (GST-tagged) (assay: gcPBM binding intensity (ln(normalized median fluorescence intensity)); higher = stronger DNA binding).
How it was run: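 Probes on an Agilent 4 × 180k array were primer-extended, double-stranded and 36 bp long, taken from intergenic genomic regions, with negative controls added. GST-tagged P. falciparum DNA-binding domains from E. coli, about 25 μg on average, were applied to the array for 1 h in 1× PBS containing 1% milk, 0.2 mg/ml BSA, 0.5% salmon testes DNA and 0.03% Triton X-100. Binding intensity, obtained after Alexa488 anti-GST antibody detection and a 488 nm scan, is the highest Masliner-normalised natural-log median intensity across replicate spots of either probe orientation.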

For “AATTAAATAAATGTATGTACATAATAAATATGTATT [XGTACX_site4379]”, which “gcPBM binding intensity (ln)” value is on record?
Its value is 8.34 ± 0.27.

“TGAAAATAGTTAATTTGTACACAAAAATTAAGAAAA [XGTACX_site5794]” was tested. Which “gcPBM binding intensity (ln)” value did it give?
The value was 8.54 ± 0.35.

For “TTTTATTTTATAAAAATAAAAAAAAAATTATTACAA [TGCATGCA_negctrl_site508]”, which “gcPBM binding intensity (ln)” value is on record?
Its value is 8.09 ± 0.4.

Which “gcPBM binding intensity (ln)” value does the source give for “TATGAAAATATATATTGTACAGAATCTATAAAAAAT [XGTACX_site8030]” here?
The value was 8.6 ± 0.35.

“TTTTCGATGTTGGTAGGATGTATGGTACACGTAGTA [TGCATGCA_negctrl_site61]” was tested. Which “gcPBM binding intensity (ln)” value did it give?
The value was 8.67 ± 0.44.

With “AAAGAAATATATACAAAAATATGAACAATTTATTAT [XGTACX_negctrl_site78]” as the sequence, how does the “gcPBM binding intensity (ln)” value read?
The value was 8.38 ± 0.32.

Which “gcPBM binding intensity (ln)” value does the source give for “GAAAATTTTTGGTGTACACAAAAAAATCCAAAAAAA [CACACA_site5042]” here?
Its value is 8.93 ± 0.042.

With “TATGATTGTTTACGTTGTACAGCTGAATTGTTCTTA [XGTACX_site8114]” as the sequence, how does the “gcPBM binding intensity (ln)” value read?
Its value is 8.7 ± 0.51.

“TAAGAAAATATTTATGTATGCATGTCCTAATATTTC [TGCATGCA_site295]” was tested. Which “gcPBM binding intensity (ln)” value did it give?
Its value is 8.44 ± 0.3.

Which “gcPBM binding intensity (ln)” value does the source give for “AAAAAAAATTAATTAGTGCAAAATATATACAAAATA [GTGCAC_site9762]” here?
The value was 8.93 ± 0.29.

How did the “gcPBM binding intensity (ln)” value turn out when “ATATAAAATATTAGTAGTACCATTAACAGTATTGTT [XGTACX_site5912]” was run?
Its value is 8.35 ± 0.31.

“ATTAAGATGTATATATGTACATATTACATACATATA [XGTACX_site8657]” was tested. Which “gcPBM binding intensity (ln)” value did it give?
Its value is 8.39 ± 0.35.

With “TATGAAAAAAAAAATACACACACGAGTTGTTATACA [CACACA_site3188]” as the sequence, how does the “gcPBM binding intensity (ln)” value read?
The value was 8.33 ± 0.42.

How did the “gcPBM binding intensity (ln)” value turn out when “AATGAAATATGGATGGGTACACATTTGATTTTATTA [XGTACX_site6155]” was run?
The value was 8.39 ± 0.39.

With “TGTATGTATAGAAACACACATACATATATATAATAT [CACACA_site1405]” as the sequence, how does the “gcPBM binding intensity (ln)” value read?
The value was 8.41 ± 0.33.

For “ATATATATAAACATATGTACACATATATATAATACA [XGTACX_site1848]”, which “gcPBM binding intensity (ln)” value is on record?
The value was 8.66 ± 0.3.

How did the “gcPBM binding intensity (ln)” value turn out when “ATTTGTTTATAGGCCATAAAATATTTAATTCATTTG [CACACA_negctrl_site1824]” was run?
Its value is 8.4 ± 0.41.

“TTTTTCATAAATATATGTACATATATTTTATATAAC [XGTACX_site3402]” was tested. Which “gcPBM binding intensity (ln)” value did it give?
Its value is 8.68 ± 0.37.

How did the “gcPBM binding intensity (ln)” value turn out when “AGTATTATATTTGTATGTACGTAGTAATATATAAAA [XGTACX_site528]” was run?
Its value is 8.49 ± 0.3.

How did the “gcPBM binding intensity (ln)” value turn out when “ATTTATATTTATGATACACACACGTATATTCACATA [CACACA_site460]” was run?
The value was 8.61 ± 0.34.

How did the “gcPBM binding intensity (ln)” value turn out when “ATATATATATTTTTATGAGGCATAAGTAATATTTTT [TGCATGCA_negctrl_site317]” was run?
The value was 9.02 ± 0.028.

How did the “gcPBM binding intensity (ln)” value turn out when “AACAAGAAAAAAAAAAAAAAAAAAAAAAAATATTTT [XGTACX_negctrl_site428]” was run?
Its value is 8.13 ± 0.3.

How did the “gcPBM binding intensity (ln)” value turn out when “TTTTTATTTTTTTAGTATACGTACTAGGTTTGTTCT [XGTACX_site645]” was run?
The value was 8.8 ± 0.47.

For “ATATATTTATATATATGTACTTAAAACATTTCGATG [XGTACX_site328]”, which “gcPBM binding intensity (ln)” value is on record?
Its value is 8.2 ± 0.38.

Which “gcPBM binding intensity (ln)” value does the source give for “AATGTAATATAAATATGTACATAATATATATAATTA [XGTACX_site4762]” here?
Its value is 8.44 ± 0.34.

Which “gcPBM binding intensity (ln)” value does the source give for “AGAAAGAAAGAATACACACACACATATATAAATATC [CACACA_site7716]” here?
The value was 8.95 ± 0.45.

For ATTATCAATATGAAGGTGCATTTAAATAATATTTAC, which “gcPBM binding intensity (ln)” value is on record?
Its value is 8.89 ± 0.26.

Which “gcPBM binding intensity (ln)” value does the source give for “TATATTCTTTATAGGTGTACTTAATAAATAAAAAAT [XGTACX_site5378]” here?
The value was 8.63 ± 0.2.

For “TATCTAGTTACTCCTTGTACATAATAAATGATTTTT [XGTACX_site5674]”, which “gcPBM binding intensity (ln)” value is on record?
The value was 8.53 ± 0.42.

For “TATGAACATAAATTTGCACACTGGATATAATATATA [CACACA_site2155]”, which “gcPBM binding intensity (ln)” value is on record?
The value was 8.61 ± 0.38.

For “TATATATATGTGTTTACACACAATAATGAATTAAAA [CACACA_site4659]”, which “gcPBM binding intensity (ln)” value is on record?
The value was 8.29 ± 0.38.

For “ACTAAACTTTTATGTACACACATATAACATTAATTT [CACACA_site5276]”, which “gcPBM binding intensity (ln)” value is on record?
The value was 8.63 ± 0.22.

With “TACAAAATGGGGAACACACACATATATATATATATA [CACACA_site3844]” as the sequence, how does the “gcPBM binding intensity (ln)” value read?
The value was 10 ± 0.42.

For “TTGGTACCTATAGATACACACATATATACCTATATA [CACACA_site5812]”, which “gcPBM binding intensity (ln)” value is on record?
The value was 8.4 ± 0.49.

Which “gcPBM binding intensity (ln)” value does the source give for “TACGTAAAAATAGGACGTACTTATTTAGAAACCATA [XGTACX_site2498]” here?
The value was 8.35 ± 0.028.

How did the “gcPBM binding intensity (ln)” value turn out when “AAATATTATAGCACCACACACTTATTTTATTTATAT [CACACA_site7133]” was run?
Its value is 8.78 ± 0.12.

“ATCATCTATGTTATTACACACGTTATGTTATTATAA [CACACA_site5502]” was tested. Which “gcPBM binding intensity (ln)” value did it give?
Its value is 8.71 ± 0.6.

How did the “gcPBM binding intensity (ln)” value turn out when “TTTTTTTTTTTTTTATGTACGAAAGAAAAGCACATA [XGTACX_site8261]” was run?
The value was 8.57 ± 0.27.

With “TTTAGATAATTCATTACACACATGTATATTTATATA [CACACA_site7602]” as the sequence, how does the “gcPBM binding intensity (ln)” value read?
The value was 8.34 ± 0.34.

“TAACGAATTTAAATTTGTACATATATAAATATATAA [XGTACX_site2168]” was tested. Which “gcPBM binding intensity (ln)” value did it give?
The value was 8.23 ± 0.36.

How did the “gcPBM binding intensity (ln)” value turn out when “TATTTTATCTATTTGTGTACTTATATTTATGCAAAA [XGTACX_site1499]” was run?
Its value is 8.84 ± 0.24.

AAAAAAAAAAAATGTGTGCACATTATTTCAACTTAA was tested. Which “gcPBM binding intensity (ln)” value did it give?
The value was 8.37 ± 0.13.

How did the “gcPBM binding intensity (ln)” value turn out when “TATATATATAATATTGCACACAAAATTAAAAGTAAA [CACACA_site7889]” was run?
The value was 8.85 ± 0.19.

How did the “gcPBM binding intensity (ln)” value turn out when “ATAAATAATATATATACACACATATCTATACATATT [CACACA_site487]” was run?
Its value is 8.4 ± 0.42.
